Data as given in ChEMBL document CHEMBL1157539, “Thousands of chemical starting points for antimalarial lead identification” (Nature, 2010).
Over roughly 13,000 compounds, “IFI” has its median near 4; the highest 2% begin near 17. Some of the results follow.

assay: GSK_TCMDC: Inhibition Frequency Index (IFI). The number of non-kinase HTS assays where a compound showed > 50 % inhibition, expressed as a percentage of the number of such assays in which the compound was tested (-0 is zero); type: functional

SMILES | IFI [%]
CN(C)CCCOc1ccc(-c2nc(-c3ccc4c(c3)CCC4=NO)c(-c3ccncc3)[nH]2)cc1 | 5.19
COc1cc2nc(Nc3ccc(C)cc3)nc(Nc3ccc(C)cc3)c2cc1OC | 6.48
COc1ccc(-c2ccc(CNCc3ccsc3)cc2)cc1S(=O)(=O)NCCN1CCCC1 | 6.06
O=S(=O)(c1ccccc1Cl)N1CCCCC(c2ccc(C(F)(F)F)cc2)=N1 | 0.73
O=C(Nc1cccc(-c2cccc(-c3nc4cc(F)ccc4[nH]3)c2)c1)Nc1ccc2c(c1)OCO2 | 5
C=Cc1c(C2CCN(CCCCNC(=O)c3ccc(-c4ccc(C#N)cc4)cc3)CC2)ccc2c1CCCC2 | 9.09
CCCc1cccc(C)c1OCCCON1C(=N)N=C(N)NC1(C)C | 7.14
Cc1ccc(-c2nnc(Nc3ccc(CC(N)=O)cc3)c3ccccc23)cc1S(=O)(=O)NCC1CCCO1 (stereo not given) | 0.68
CCN(CCNS(C)(=O)=O)c1ccc(N)c(C)c1 | 7.32
COC(=O)[C@@H](NC(=O)[C@H](Cc1ccc(OC)c(OC)c1)Nc1ccc(C#N)c2ccccc12)c1ccc(O)cc1 | 5.77
N=C(N)Nc1nc(-c2cccc(NC(=O)NCC(c3ccccc3)c3ccccc3)c2)cs1 | 3.88
Cc1cccc(C(=O)NCCCN2CCC(NC(=O)/C=C/c3ccc(Cl)c(Cl)c3)CC2)c1 | 10
O=C(NCCCCCN1CCC(c2ccc(O)cc2)CC1)c1ccc(-c2ccccc2)cc1 | 2.16
Nc1ccc(-c2cnc3[nH]cc(-c4ccc(C(=O)O)cc4)c3c2)cn1 | 4.67
COc1ccc2c(NN=Cc3ccccn3)ccnc2c1 | 1.41
Cn1cnc(CCNC(=O)c2ccc(-c3cccc(-c4nc5ccccc5[nH]4)c3)cc2)c1 | 4.72
COc1ccc(CN2CCCN(Cc3cccc(NC(=O)c4ccc(Cl)c(Cl)c4)c3)CC2)cc1 | 9.4
Cn1c(NC(=O)CCCCCNC(=O)c2ccc(O)c(-c3ccc(Cl)c(Cl)c3)c2)nc2ccccc21 | 2.21
Cc1cc(C)cc(CC(=O)N2CCC(n3c(C)nc4ccc(C)cc43)CC2)c1 | 0
CCCCN(Cc1cnccc1-c1ccc(Br)cc1)c1ccc(C(O)(C(F)(F)F)C(F)(F)F)cc1 | 2.19
O=C(Nc1ccc(Cl)c(Cl)c1)Nc1ccc2nccc(N3CCN(Cc4ccccc4)CC3)c2c1 | 8.03
N=C1NC(=N)N(OCCCCCCON2C(=N)NC(=N)NC2C=Cc2ccccc2)C(C=Cc2ccccc2)N1 (stereo not given) | 3.52
CCN(CC)C(=O)c1cccc(C=Cc2ccc(-c3c(C)[nH]c(C)c(Cl)c3=O)cc2)c1 | 1.83
Cc1ccccc1CNc1noc(-c2c(F)cccc2Cl)n1 | 2.86
O=C(Nc1ccccc1)Nc1cccc(-c2ccc(-c3nc4cc(C(F)(F)F)ccc4[nH]3)cc2)c1 | 4.04
